Source: the supplement of paper PMC10369915
This is one part of the list. No stated cut-off is given here; in the data, active = 3.2 or more and inactive = the rest. Most of these values are background signal.

Experiments:
Assay in all cases: enrichment score (SH2-bound / input frequency) (ratio); bacterial display of known human phosphotyrosine sites (pTyr-Var adds point mutants) read by sequencing; higher = stronger binding; tyrosines were phosphorylated by kinases first
Conditions in all cases: peptide library: pTyr-Var
[1] = biological target: SHP2 C-SH2 domain E139D
[2] = biological target: SHP2 C-SH2 domain wild-type
[3] = biological target: SHP2 N-SH2 domain L43F
[4] = biological target: SHP2 N-SH2 domain T42A
[5] = biological target: SHP2 N-SH2 domain T52S
[6] = biological target: SHP2 N-SH2 domain wild-type
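Further: displayed peptides selected on beads carrying the immobilized SH2 domain, with library peptides lacking any tyrosine serving as negative controls.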

Binder	enrichment score [1]	enrichment score [2]	enrichment score [3]	enrichment score [4]	enrichment score [5]	enrichment score [6]
ELTAKYLNFFR [P3H4_Y181_Q186R_YF]	inactive: 1.08	inactive: 1.38	inactive: 1.24	inactive: 1.52	inactive: 1.3	inactive: 1.04
HLTNQFMQRVA [PABPC4_Y382_Y382F]	inactive: 1.29	inactive: 1.06	inactive: 1.14	inactive: 1.08	inactive: 1.09	inactive: 1.1
NGSKAYAFVHF [PABPC5_Y147_G146A_YF]	active: 3.24	active: 4.58	active: 3.61	active: 5.91	active: 4.31	inactive: 1.81
NGSKGYAFVHF [PABPC5_Y147_YF]	inactive: 2.84	active: 4.75	active: 4.35	active: 8.08	active: 5.21	inactive: 1.78
SKGYAYVHFDS [PABPC5_Y149]	active: 4.06	active: 6.17	active: 6.01	active: 10.1	active: 7.16	inactive: 2.59
GQDLFYEDEDL [PACS1_Y303]	inactive: 0.694	inactive: 0.913	inactive: 0.818	inactive: 0.832	inactive: 0.929	inactive: 0.902
GQDLLYEDEDL [PACS1_Y303_F302L]	inactive: 0.703	inactive: 0.73	inactive: 0.763	inactive: 0.576	inactive: 0.553	inactive: 0.917
PGVDIYVSPNM [PADI3_Y51_I52V]	inactive: 0.928	inactive: 0.918	inactive: 1.11	inactive: 0.855	inactive: 0.842	inactive: 1.54
GYEEAYSVFKK [PAFAH1B1_Y28]	inactive: 0.794	inactive: 0.806	inactive: 0.751	inactive: 0.664	inactive: 1.04	inactive: 1.09
GYEEAYSVSKK [PAFAH1B1_Y28_F31S]	inactive: 0.635	inactive: 0.593	inactive: 0.655	inactive: 0.635	inactive: 0.545	inactive: 0.679
GFEEAYSVSKK [PAFAH1B1_Y28_F31S_YF]	inactive: 0.613	inactive: 0.562	inactive: 0.662	inactive: 0.543	inactive: 0.531	inactive: 0.545
GFEEAYSVFKK [PAFAH1B1_Y28_YF]	inactive: 0.641	inactive: 0.537	inactive: 0.622	inactive: 0.582	inactive: 0.667	inactive: 0.828
FADIAYNYRHG [PAH_Y166]	inactive: 1.02	inactive: 1.2	inactive: 1.08	inactive: 0.814	inactive: 0.928	inactive: 1.24
SADIAYNYRHG [PAH_Y166_F161S]	inactive: 0.871	inactive: 0.659	inactive: 0.715	inactive: 0.617	inactive: 0.671	inactive: 0.8
SADIAYNFRHG [PAH_Y166_F161S_YF]	inactive: 0.841	inactive: 0.733	inactive: 0.843	inactive: 0.704	inactive: 0.879	inactive: 0.779
FADIAYNYRHR [PAH_Y166_G171R]	inactive: 0.649	inactive: 0.607	inactive: 0.584	inactive: 0.488	inactive: 0.564	inactive: 0.798
FADIAYNFRRG [PAH_Y166_H170R_YF]	inactive: 0.637	inactive: 0.548	inactive: 0.511	inactive: 0.525	inactive: 0.643	inactive: 0.621
FADTAYNFRHG [PAH_Y166_I164T_YF]	inactive: 1.03	inactive: 0.759	inactive: 0.791	inactive: 0.658	inactive: 0.777	inactive: 0.903
FADIAYSYRHG [PAH_Y166_N167S]	inactive: 0.975	inactive: 0.85	inactive: 0.819	inactive: 0.732	inactive: 1.07	inactive: 0.843

Binder	enrichment score [1]	enrichment score [2]	enrichment score [3]	enrichment score [4]	enrichment score [5]	enrichment score [6]
FADIAYNFHHG [PAH_Y166_R169H_YF]	inactive: 0.886	inactive: 0.745	inactive: 0.857	inactive: 0.942	inactive: 0.97	inactive: 0.993
GLETSYIEDNC [PAH_Y24_Q20L]	inactive: 0.491	inactive: 0.493	inactive: 0.637	inactive: 0.514	inactive: 0.515	inactive: 0.467
HGEAYYSEVKP [PAK5_Y182]	inactive: 0.599	inactive: 0.681	inactive: 0.397	inactive: 0.541	inactive: 1.19	inactive: 0.961
HSYNSYTYPRL [PAK5_Y316]	inactive: 1.26	inactive: 0.914	inactive: 1.01	inactive: 0.868	inactive: 1.12	inactive: 1.02
LVGTPYWMAPE [PAK5_Y608]	inactive: 1.14	inactive: 1.44	inactive: 0.939	inactive: 1.08	inactive: 1.08	inactive: 1.29
VPVDGYISGLL [PAK6_Y81_M76V]	inactive: 0.928	inactive: 1	inactive: 0.928	inactive: 0.709	inactive: 0.755	inactive: 0.927
SILTVYSKDNY [PANK2_Y400_A398T]	inactive: 1.05	inactive: 0.873	inactive: 1.05	inactive: 1	inactive: 0.774	inactive: 0.981
SILAVYSKDIF [PANK2_Y400_N404I_YF]	inactive: 1.35	inactive: 1.13	inactive: 1.46	inactive: 0.902	inactive: 1.2	inactive: 1.03
YSKDIYKRVTG [PANK2_Y405_N404I]	inactive: 0.46	inactive: 0.388	inactive: 0.428	inactive: 0.403	inactive: 0.406	inactive: 0.455
FSKDIYKRVTG [PANK2_Y405_N404I_YF]	inactive: 0.504	inactive: 0.391	inactive: 0.436	inactive: 0.358	inactive: 0.439	inactive: 0.442
QLATEYVFSDF [PANX1_Y10]	inactive: 1.16	inactive: 1.04	inactive: 1.13	inactive: 1.01	inactive: 1.08	inactive: 1.11
HKDNNYISMWF [PAPOLG_Y432_V433I]	inactive: 1.15	inactive: 0.739	inactive: 1.31	inactive: 1.91	inactive: 2.03	inactive: 1.03
CDSSGYWTPEE [PAPPA2_Y908]	inactive: 0.683	inactive: 0.765	inactive: 0.601	inactive: 0.674	inactive: 0.628	inactive: 0.6
WDSSGYWTPEE [PAPPA2_Y908_C903W]	inactive: 0.849	inactive: 1.14	inactive: 0.892	inactive: 1.15	inactive: 0.708	inactive: 1.12
KKDGPYDVVVL [PARK7_Y67_E64D]	inactive: 0.703	inactive: 0.668	inactive: 0.723	inactive: 0.613	inactive: 0.611	inactive: 0.927
EYFENYIEELK [PARP4_Y218]	inactive: 0.907	inactive: 1.13	inactive: 1.25	inactive: 0.961	inactive: 0.926	inactive: 1.02
EYYENYIEELK [PARP4_Y218_F215Y]	inactive: 1.68	inactive: 1.43	inactive: 1.13	inactive: 1.02	inactive: 1.22	inactive: 1.29
FHLLPYTIRAM [PARS2_Y93_V95I_YF]	inactive: 2.67	inactive: 2.59	inactive: 2.83	inactive: 2.57	inactive: 2.98	inactive: 2.37
